Source: the supplement of paper PMC9446081
Among all 39,000 compounds or so, about 220 (0.56%) showed activity. This is one part of the list.

System: Escherichia coli K-12 BW25113
Assay: relative growth (OD600 normalised to plate interquartile mean) (fraction); higher = less growth inhibition, active = 0.2 or less
Conditions: 50 µM; LB; incubation time: overnight (16-24 h)
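Also: static incubation at 37 °C against the wild-type strain, values averaged over two biological replicates.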

SMILES	relative growth
Cc1ccc(S(=O)(=O)Nc2ccc3c(c2)CC(=O)N([C@H](C)CO)C[C@@H](C)[C@@H](CN(C)S(=O)(=O)c2cn(C)cn2)O3)cc1	inactive: 1.04
CCC(C)n1ncn(-c2ccc(N3CCN(c4ccc(OCC5COC(Cn6cncn6)(c6ccc(Cl)cc6Cl)O5)cc4)CC3)cc2)c1=O.Cl.Cl (stereo not given)	inactive: 1.14
Cc1noc(C)c1NC(=O)Nc1cccc2c1O[C@H](CN(C)S(=O)(=O)c1ccccc1)[C@H](C)CN([C@H](C)CO)C2=O	inactive: 0.996
C[C@H](CO)N1C[C@H](C)[C@H](CN(C)C(=O)Nc2ccccc2)Oc2cc(C#C[C@@H](C)O)ccc2S1(=O)=O	inactive: 1
Cc1noc(C)c1NC(=O)N(C)C[C@H]1OCCCC[C@H](C)Oc2ccc(NC(=O)Cc3ccccc3)cc2C(=O)N([C@H](C)CO)C[C@@H]1C	inactive: 0.969
C[C@H](CO)N1C[C@H](C)[C@@H](CN(C)Cc2ccccc2)Oc2cc(C#CC(C)(C)O)ccc2S1(=O)=O	inactive: 0.999
Cn1c(=O)c2c(nc(N(CCO)CCO)n2Cc2ccc(F)cc2)n(C)c1=O	inactive: 1
COc1cccc(NC(=O)N2C[C@@H](O)COC[C@@H]3O[C@@H](CC(=O)NCc4ccccc4F)CC[C@H]32)c1	inactive: 0.989
C[C@@H]1CCCCO[C@H](CN(C)Cc2ccncc2)[C@H](C)CN([C@@H](C)CO)C(=O)c2cc(NC(=O)c3ccccc3)ccc2O1	inactive: 1.02
CC(C)NC(=O)Cn1ccc([N+](=O)[O-])n1	inactive: 1.03
Nc1cccc(C2=NCCN2)c1	inactive: 1
COc1ccc(CN(C)C[C@@H]2OCCCC[C@H](C)Oc3ccc(NS(=O)(=O)c4ccc(Cl)cc4)cc3C(=O)N([C@@H](C)CO)C[C@H]2C)cc1	inactive: 0.957
CC(C)NC(=O)N(C)C[C@@H]1Oc2ccc(NC(=O)CCC(F)(F)F)cc2CC(=O)N([C@H](C)CO)C[C@@H]1C	inactive: 0.959
NC(=O)N[C@H]1NC(=O)NC1=O	inactive: 0.959
C[C@@H]1CN([C@H](C)CO)C(=O)c2cc(NS(=O)(=O)c3ccc(Cl)cc3)ccc2O[C@@H](C)CCCCO[C@@H]1CN(C)C(=O)NC1CCCCC1	inactive: 1.02
Cc1cc(C(=O)Nc2cccc3c2O[C@H](CN(C)Cc2ccc4c(c2)OCO4)[C@@H](C)CN([C@@H](C)CO)C3=O)n(C)n1	inactive: 1
C[C@H]1CN([C@@H](C)CO)C(=O)c2cc(Br)cnc2O[C@@H]1CN(C)Cc1ccc2c(c1)OCO2	inactive: 0.976
COc1ccc(NC(=O)[C@@H]2[C@H](c3ccc(C)cc3)CC(=O)N2C(=O)OCc2ccccc2)c2ncccc12	inactive: 0.992
C[C@@H]1CN([C@@H](C)CO)C(=O)Cc2cc(NS(C)(=O)=O)ccc2O[C@@H]1CN(C)C(=O)NC1CCCCC1	inactive: 0.992
C[C@H]1CCCCO[C@@H](CN(C)C(=O)C2CCCCC2)[C@@H](C)CN([C@@H](C)CO)C(=O)c2cc(NC(=O)Cc3ccccc3)ccc2O1	inactive: 1.01

SMILES	relative growth
C[C@@H]1CCCCO[C@@H](CN(C)C(=O)C2CCCCC2)[C@H](C)CN([C@@H](C)CO)C(=O)c2cc(NC(=O)c3ccccc3)ccc2O1	inactive: 1
COc1oc(C(=O)NC2CCCCC2)c(-c2ccc(Cl)cc2)c1S(=O)(=O)c1ccccc1NC(C)=O	inactive: 1.01
CC(C)(C)[S@@+]([O-])N1Cc2cc(C(=O)O)nc(-c3ccc(Br)cc3)c2[C@H]1CCO[Si](C)(C)C(C)(C)C	inactive: 0.978
COc1ccccc1N1C(N)=NC(N)=NC1(C)C	inactive: 0.995
CO[C@H]1CN(C)C(=O)c2cc(NC(=O)c3ccc(F)cc3)ccc2OC[C@H](C)N(C(=O)CN(C)C)C[C@@H]1C	inactive: 1.06
C[C@@H]1CN([C@@H](C)CO)C(=O)CCCn2cc(nn2)CO[C@@H]1CN(C)S(=O)(=O)c1cn(C)cn1	inactive: 0.851
C[C@H]1CN([C@@H](C)CO)C(=O)c2cc(NS(=O)(=O)c3ccc(F)cc3)ccc2O[C@@H]1CN(C)S(=O)(=O)c1ccccc1	inactive: 0.994
Cc1ccc(S(=O)(=O)N(C)C[C@H]2Oc3ccc(NS(=O)(=O)c4cn(C)cn4)cc3C(=O)N([C@H](C)CO)C[C@H]2C)cc1	inactive: 0.998
C[C@H]1CCCCO[C@H](CN(C)C(=O)Nc2ccc(F)cc2)[C@@H](C)CN([C@@H](C)CO)C(=O)c2cc(NC(=O)Nc3ccc(F)cc3)ccc2O1	inactive: 1.04
COCC#Cc1ccc2c(c1)O[C@@H](CN(C)Cc1ccc3c(c1)OCO3)[C@H](C)CN([C@H](C)CO)S2(=O)=O	inactive: 1.03
CN1CCN(C(=O)C[C@@H]2CC[C@@H]3[C@H](COC[C@@H](O)CN3Cc3ccc4c(c3)OCO4)O2)CC1	inactive: 0.998
Cc1ccc(S(=O)(=O)N(C)C[C@@H]2Oc3ncc(-c4ccncc4)cc3C(=O)N([C@H](C)CO)C[C@@H]2C)cc1	inactive: 1
C[C@H]1CN([C@@H](C)CO)C(=O)Cc2cc(NC(=O)C3CCCCC3)ccc2O[C@@H]1CN(C)S(=O)(=O)c1cn(C)cn1	inactive: 1.05
C[C@@H]1CN([C@@H](C)CO)C(=O)Cc2cc(NC(=O)Nc3ccc(C(F)(F)F)cc3)ccc2O[C@H]1CN(C)Cc1ccc(Cl)c(Cl)c1	inactive: 1.02
O=c1nc(C(F)(F)F)[nH]c2nc[nH]c12	inactive: 1.01
C[C@H](CO)N1C[C@H](C)[C@@H](CN(C)Cc2cncnc2)Oc2cc(C#CC3CCCC3)ccc2S1(=O)=O	inactive: 1
COc1ccc([Si](C)(C)[C@H]2[C@H](CCO)O[C@@]3(C(=O)N(Cc4ccc(N5C(=O)c6cccc7cccc5c67)cc4)c4ccccc43)[C@@H]2C)cc1	inactive: 0.94
C[C@@H]1CN([C@@H](C)CO)C(=O)c2cc(NC(=O)CCC(F)(F)F)ccc2O[C@@H](C)CCCCO[C@H]1CN(C)S(=O)(=O)c1ccc(F)cc1	inactive: 1.01
COc1ccc(-c2ccccc2)cc1NC(=O)c1ccc2nc(C)c(N(C)C(=O)CCc3ccccc3)n2c1	inactive: 1.02
C[C@@H]1CN([C@H](C)CO)C(=O)c2cc(NC(=O)C3CCCCC3)ccc2O[C@@H](C)CCCCO[C@@H]1CN(C)Cc1ccc(C(F)(F)F)cc1	inactive: 0.972

SMILES	relative growth
Cc1ccccc1S(=O)(=O)N1[C@@H]2Cn3c(cccc3=O)[C@H]1[C@@H](C(=O)N1CCOCC1)[C@@H]2CO	inactive: 0.951
C[C@@H]1CN([C@@H](C)CO)C(=O)Cc2cc(NC(=O)Nc3ccc(F)cc3)ccc2O[C@H]1CN(C)Cc1ccc(Oc2ccccc2)cc1	inactive: 1.01
C[C@@H]1CN([C@H](C)CO)C(=O)c2cccc(NC(=O)Nc3cccc4ccccc34)c2O[C@@H]1CN(C)S(=O)(=O)c1ccc(F)cc1	inactive: 1.01
Cc1noc(C)c1NC(=O)Nc1ccc2c(c1)C(=O)N([C@H](C)CO)C[C@H](C)[C@@H](CN(C)Cc1ccncc1)OCCCC[C@H](C)O2	inactive: 1.01
C[C@H](CO)N1C[C@H](C)[C@@H](CN(C)S(C)(=O)=O)Oc2ccc(NC(=O)CCC(F)(F)F)cc2CC1=O	inactive: 0.981
Cc1noc(C)c1NC(=O)Nc1ccc2c(c1)C(=O)N([C@@H](C)CO)C[C@@H](C)[C@H](CN(C)C(=O)Nc1c(C)noc1C)OCCCC[C@H](C)O2	inactive: 1.02
C[C@H](CO)N1C[C@H](C)[C@@H](CN(C)Cc2ccc(C(F)(F)F)cc2)Oc2c(NC(=O)C3CCCCC3)cccc2C1=O	inactive: 0.965
C[C@@H]1CCCCO[C@@H](CN(C)Cc2ccc(C(F)(F)F)cc2)[C@@H](C)CN([C@H](C)CO)C(=O)c2cc(NS(=O)(=O)c3ccc(F)cc3)ccc2O1	inactive: 1.1
O=C(C[C@H]1CC[C@@H](NC(=O)Cc2ccccn2)[C@@H](CO)O1)NCCCN1CCOCC1	inactive: 0.983
C[C@@H]1CN([C@H](C)CO)S(=O)(=O)c2ccc(-c3ccc(F)cc3)cc2O[C@@H]1CN(C)S(C)(=O)=O	inactive: 1.02
Cc1ccc(NC(=O)COc2ccc(S(=O)(=O)N3CCOCC3)cc2)cc1S(=O)(=O)N1CCCCCC1	inactive: 1.01
C[C@H]1CN([C@@H](C)CO)C(=O)c2cccc(NC(=O)c3ccncc3)c2O[C@@H]1CN(C)S(=O)(=O)c1ccc(F)cc1	inactive: 1
COC(=O)[C@@H](O)c1ccccc1	inactive: 0.997
C[C@H]1CN([C@@H](C)CO)C(=O)c2cc(NC(=O)CCN3CCOCC3)ccc2O[C@@H]1CN(C)S(=O)(=O)c1ccccc1	inactive: 1.01
CCC(=O)N1C[C@]2(CN(C2)S(=O)(=O)C)c2c(n(c3cc(ccc23)OC)C)[C@@H]1CO	inactive: 0.967
C=C/C=C/[C@H]1C(=C)CN([C@H](Cc2ccc(-n3cc(C(=O)NO)nn3)cc2)C(=O)OC)[C@@H]1[C@H](O)Cc1ccccc1	inactive: 1.02
COc1ccc(S(=O)(=O)Nc2ccc3c(c2)C(=O)N([C@@H](C)CO)C[C@@H](C)[C@@H](CN(C)S(=O)(=O)c2cn(C)cn2)OCCCC[C@@H](C)O3)cc1	inactive: 1.01
C[C@@H]1CCCCO[C@@H](CN(C)C(=O)Nc2ccc(F)cc2)[C@H](C)CN([C@H](C)CO)C(=O)c2cc(NC(=O)CCCN(C)C)ccc2O1	inactive: 1.02
C[C@@H]1CN([C@@H](C)CO)C(=O)c2ccccc2-c2ccccc2CO[C@@H]1CN(C)C(=O)Nc1ccc(-c2ccccc2)cc1	inactive: 1.04
C[C@H]1CN([C@@H](C)CO)C(=O)c2cc(NC(=O)c3ccncc3)ccc2O[C@H]1CN(C)S(=O)(=O)c1cn(C)cn1	inactive: 0.996
